Here are results for 43 compounds from paper PMC4336329 (PLoS ONE, 2015).

In all, about 310,000 compounds went through this assay and about 14,000 (4.5%) showed an effect of 50% or more. The effect is printed as a negative number. The list shows a part of the results.
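Also: peak tail current of the secondary pulse compared with the same well before compound.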

Chain of human ether-à-go-go-related gene (hERG) potassium channel (Q12809 whole entry, looked up): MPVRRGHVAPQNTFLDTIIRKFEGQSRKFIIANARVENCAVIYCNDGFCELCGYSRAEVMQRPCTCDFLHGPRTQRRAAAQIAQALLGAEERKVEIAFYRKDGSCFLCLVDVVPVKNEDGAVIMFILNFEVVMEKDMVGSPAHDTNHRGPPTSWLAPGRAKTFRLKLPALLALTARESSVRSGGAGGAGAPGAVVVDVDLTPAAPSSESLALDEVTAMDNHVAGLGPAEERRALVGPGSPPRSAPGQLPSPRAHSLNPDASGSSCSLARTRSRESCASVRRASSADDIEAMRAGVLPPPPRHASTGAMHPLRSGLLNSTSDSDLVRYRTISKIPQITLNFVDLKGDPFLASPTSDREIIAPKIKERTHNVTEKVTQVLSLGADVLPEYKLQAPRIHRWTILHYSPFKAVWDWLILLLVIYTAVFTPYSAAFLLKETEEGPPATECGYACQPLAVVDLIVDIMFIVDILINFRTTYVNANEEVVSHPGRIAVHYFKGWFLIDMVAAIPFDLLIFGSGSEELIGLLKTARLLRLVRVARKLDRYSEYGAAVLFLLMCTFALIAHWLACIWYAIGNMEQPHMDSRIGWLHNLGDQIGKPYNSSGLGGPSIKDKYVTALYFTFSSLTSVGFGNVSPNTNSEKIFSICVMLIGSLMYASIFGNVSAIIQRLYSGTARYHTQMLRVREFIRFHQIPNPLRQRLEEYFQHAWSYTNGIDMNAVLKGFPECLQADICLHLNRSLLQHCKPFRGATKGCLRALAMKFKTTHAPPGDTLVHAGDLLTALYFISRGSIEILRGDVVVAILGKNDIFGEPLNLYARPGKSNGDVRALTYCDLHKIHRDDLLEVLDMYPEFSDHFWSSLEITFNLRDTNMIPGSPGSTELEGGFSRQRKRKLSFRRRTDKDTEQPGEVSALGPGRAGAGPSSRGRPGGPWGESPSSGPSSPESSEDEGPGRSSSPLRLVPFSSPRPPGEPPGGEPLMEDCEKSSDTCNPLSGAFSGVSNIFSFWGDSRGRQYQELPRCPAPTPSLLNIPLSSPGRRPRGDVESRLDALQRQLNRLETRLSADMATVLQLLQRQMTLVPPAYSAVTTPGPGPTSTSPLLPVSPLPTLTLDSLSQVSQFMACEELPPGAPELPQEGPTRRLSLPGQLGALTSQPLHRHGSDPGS

The assay addresses human ether-à-go-go-related gene (hERG) potassium channel (human, UniProt Q12809). Kind of assay: primary screen, population patch clamp on CHO cells stably expressing hERG.
`CC(C)CCNC(=O)c1ccc2nc[nH]c2c1`: the “hERG current change (%, negative = inhibition) at 10uM” value is -0.442%.
For `CCOc1ccc(C(=O)NC(=S)Nc2ccc(NC(=O)c3ccco3)cc2)cc1[N+](=O)[O-]` the value was 9.8%; for `COc1ccc(C2CC(C(F)(F)F)n3nc(C(=O)O)c(Cl)c3N2)cc1OC` (stereo not shown), 7.59%; for `COc1ccc(/C=N/NC(=O)c2cccnc2)cc1CN1CCN(c2ccc(F)cc2)CC1`, -51%.
For `COc1ccc2nc(C)cc(SCC(=O)NNC(=O)COc3ccccc3)c2c1` the value was 17.9%; for `O=C(CCCSc1nc2ccccc2[nH]1)Nc1ccccc1`, 7.05%; for `CCCN1C(=O)/C(=C\c2ccncc2)SC1=Nc1ccccc1`, -14.5%.
In the case of `COc1cc(C2Nc3cc(Cl)c(S(N)(=O)=O)cc3S(=O)(=O)N2)cc(OC)c1OC` (stereo not shown) it was -12.9%.
Consider `Cc1[nH][nH]c(=O)c1C(c1ccc([N+](=O)[O-])cc1)c1c(C)[nH][nH]c1=O`, for which the “hERG current change (%, negative = inhibition) at 10uM” value came out at 23.9%.
For `CCCCCN(C(=O)CCC(=O)OCC(=O)c1ccc(CCC)cc1)c1c(N)n(CCCC)c(=O)[nH]c1=O` the value was -61.5%; for `Cc1ccc(S(=O)(=O)CCC(=O)Nc2nc(C(C)(C)C)cs2)cc1`, -12.1%; for `Cc1cccc(-n2cnc3c(sc4nc(N5CCOCC5)c5c(c43)CCCC5)c2=O)c1`, 12.5%.
In the case of `O=C(NCCCCCCNC(=O)N1CCCCCC1)N1CCCCCC1` it was -10.2%; in that of `COC(=O)c1nn(C23CC4CC(CC(C4)C2)C3)c2c1C(=O)N(c1ccc(Br)cc1)C2=O`, 4.07%.
In the case of `CCc1cccc(NC(=O)c2cc(OC)c(OC)c(OC)c2)c1` it was -15.1%.
On to `COc1nc(C)nc2c1sc(=S)n2C`, for which the “hERG current change (%, negative = inhibition) at 10uM” value is listed as 3.04%.
Turning to `Cc1csc(NC(=O)[C@@H]2CCCN2C(=O)c2cccs2)n1`, the “hERG current change (%, negative = inhibition) at 10uM” value is given as 22.7%.
On to `CCCCN(C)CC(O)Cn1cc(/C=C/C(=O)c2ccc(OCC)cc2)c2ccccc21` (stereo not shown), for which the “hERG current change (%, negative = inhibition) at 10uM” value is listed as -20.5%.
For `O=C(COC(=O)CCC(=O)c1cccs1)Nc1ccc(S(=O)(=O)N2CCOCC2)cc1` the value was -21.3%.
For `Cc1ccccc1-c1ccccc1N`, the “hERG current change (%, negative = inhibition) at 10uM” value is given as -5.71%.
For `O=C(CCC1N=C2c3ccccc3N=C(SCC(=O)NCc3ccco3)N2C1=O)NCc1ccco1` (stereo not shown) the value was 12.7%.
Take `O=S(Cc1ccc(Cl)cc1)c1ncc(CO)n1Cc1ccccc1` (stereo not shown): the “hERG current change (%, negative = inhibition) at 10uM” value was -3.62%.
For `CCNc1nc(NCC)nc(N/N=C(\C)c2ccc(OC)cc2)n1` the value was -14.1%; for `Cc1cc(C)nc(SCc2nnc(SCC(=O)N3CCCc4ccccc43)o2)n1`, -20.2%.
For the compound `CC1=NN(C(=O)CSCc2ccccc2)C(O)(c2ccccc2)C1` (stereo not shown), the “hERG current change (%, negative = inhibition) at 10uM” value is -5.02%.
For `Nc1nc(NCCCN2CCOCC2)nc(Nc2cccc(F)c2)c1[N+](=O)[O-]` the value was -37.6%; for `O=C(NCCS(=O)(=O)N1CCN(c2ccccc2F)CC1)c1cc(=O)c2ccccc2o1`, 15%; for `Cc1ccc(S(=O)(=O)N2CCC(=O)N(C(CO)Cc3ccccc3)CC2)cc1` (stereo not shown), -0.0627%.
In the case of `Cc1ccc(OCC(=O)O/N=C(\N)Cc2ccc([N+](=O)[O-])cc2)cc1C` it was -32.7%; in that of `CCCS(=O)(=O)N1CCCC(C(=O)N2CCN(C(=O)OCC)CC2)C1` (stereo not shown), 3.02%.
In the case of `O=C(N/N=C/c1cc(Br)cc(Br)c1O)c1cccc(S(=O)(=O)N2CCOCC2)c1` it was 11.3%.
For `COCCOC(=O)c1cc(C(=O)c2cc(Cl)ccc2O)coc1=N`, the “hERG current change (%, negative = inhibition) at 10uM” value is reported as 16.2%.
Consider `O=C(NC1CCCCC1)NC1CC2CCCC(C1)N2C1CCCC1` (stereo not shown), for which the “hERG current change (%, negative = inhibition) at 10uM” value was 0.263%.
For `CC(C)(C)C(=O)Cn1nnc(-c2ccc(C(F)(F)F)cc2)n1` the value was 7.47%.
For `CSCCC(NC(=O)c1ccccc1Cl)C(=O)N1CC(C)OC(C)C1` (stereo not shown) the value was 3.3%.
Consider `O=c1c(-c2ccc(Cl)cc2)c[nH]n1-c1ccccc1`, for which the “hERG current change (%, negative = inhibition) at 10uM” value is given as 28.6%.
On to `COc1ccc(OCC(O)CN2C(=O)c3ccccc3S2(=O)=O)cc1` (stereo not shown), for which the “hERG current change (%, negative = inhibition) at 10uM” value is on record as -11.5%.
In the case of `COc1ccccc1C1=NOC(C(=O)N2CCN(C(=O)c3ccco3)CC2)C1` (stereo not shown) it was -19.7%; in that of `COc1ccc(-c2[nH]n(-c3ccc([N+](=O)[O-])cc3)c(=O)c2C=NCc2ccncc2)cc1`, -3.44%.
For `C=CCNC(=S)Nc1nc2c(cc1C(=O)OCC)COC(C)(C)C2`, the “hERG current change (%, negative = inhibition) at 10uM” value stood at 7.99%.
Take `COc1cc(C)c(S(=O)(=O)N2CCOCC2)c(C)c1C`: the “hERG current change (%, negative = inhibition) at 10uM” value was 15.2%.
Turning to `Cn1nccc1NC(=O)Nc1ccc(OC(F)(F)F)cc1`, the “hERG current change (%, negative = inhibition) at 10uM” value is reported as -10.5%.
Consider `CCCCN(C)CCCNC(=O)CS(=O)Cc1nc(-c2ccc(OC)c(OC)c2)oc1C` (stereo not shown), for which the “hERG current change (%, negative = inhibition) at 10uM” value is -8.32%.
